In test [1] the target is T1, affinity-tagged Npa2 (S. cerevisiae) (UniProt P47108).
T1 sequence: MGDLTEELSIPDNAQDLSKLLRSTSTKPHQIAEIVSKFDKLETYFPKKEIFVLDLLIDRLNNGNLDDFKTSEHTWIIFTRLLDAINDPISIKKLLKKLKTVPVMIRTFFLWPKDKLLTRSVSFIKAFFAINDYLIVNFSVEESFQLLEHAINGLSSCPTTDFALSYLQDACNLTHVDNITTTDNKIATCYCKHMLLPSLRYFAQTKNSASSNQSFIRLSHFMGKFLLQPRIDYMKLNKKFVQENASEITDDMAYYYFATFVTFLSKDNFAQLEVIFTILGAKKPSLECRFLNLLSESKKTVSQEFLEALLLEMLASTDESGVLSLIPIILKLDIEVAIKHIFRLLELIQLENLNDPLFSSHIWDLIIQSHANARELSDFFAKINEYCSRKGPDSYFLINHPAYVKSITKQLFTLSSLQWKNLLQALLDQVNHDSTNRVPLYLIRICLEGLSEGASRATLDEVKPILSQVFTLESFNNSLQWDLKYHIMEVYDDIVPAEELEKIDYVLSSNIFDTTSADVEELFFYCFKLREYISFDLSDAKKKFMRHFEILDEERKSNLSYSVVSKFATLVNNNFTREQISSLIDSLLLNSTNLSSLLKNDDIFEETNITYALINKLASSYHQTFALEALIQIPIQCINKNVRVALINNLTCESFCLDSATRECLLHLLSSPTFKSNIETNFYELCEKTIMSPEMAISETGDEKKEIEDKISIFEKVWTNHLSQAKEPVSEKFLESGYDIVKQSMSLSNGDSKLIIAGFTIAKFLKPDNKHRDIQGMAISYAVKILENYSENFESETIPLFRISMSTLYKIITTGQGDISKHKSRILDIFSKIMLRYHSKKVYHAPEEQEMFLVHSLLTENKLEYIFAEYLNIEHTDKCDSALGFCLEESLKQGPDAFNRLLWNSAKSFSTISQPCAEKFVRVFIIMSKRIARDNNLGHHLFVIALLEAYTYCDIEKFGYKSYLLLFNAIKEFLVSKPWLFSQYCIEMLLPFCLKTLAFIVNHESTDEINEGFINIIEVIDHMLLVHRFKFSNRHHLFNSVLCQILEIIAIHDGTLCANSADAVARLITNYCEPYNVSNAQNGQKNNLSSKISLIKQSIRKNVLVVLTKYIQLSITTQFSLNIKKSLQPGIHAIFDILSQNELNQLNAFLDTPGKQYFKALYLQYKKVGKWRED
Briefly: pull-down; pre-60S particles isolated via affinity-tagged assembly factors from yeast strains expressing Dbp7-GFP; Dbp7-GFP detected in the particles (Supplementary Fig. 1c).

Test [2] deals with T2, affinity-tagged Ssf1 (S. cerevisiae) (UniProt P38789).
T2 sequence: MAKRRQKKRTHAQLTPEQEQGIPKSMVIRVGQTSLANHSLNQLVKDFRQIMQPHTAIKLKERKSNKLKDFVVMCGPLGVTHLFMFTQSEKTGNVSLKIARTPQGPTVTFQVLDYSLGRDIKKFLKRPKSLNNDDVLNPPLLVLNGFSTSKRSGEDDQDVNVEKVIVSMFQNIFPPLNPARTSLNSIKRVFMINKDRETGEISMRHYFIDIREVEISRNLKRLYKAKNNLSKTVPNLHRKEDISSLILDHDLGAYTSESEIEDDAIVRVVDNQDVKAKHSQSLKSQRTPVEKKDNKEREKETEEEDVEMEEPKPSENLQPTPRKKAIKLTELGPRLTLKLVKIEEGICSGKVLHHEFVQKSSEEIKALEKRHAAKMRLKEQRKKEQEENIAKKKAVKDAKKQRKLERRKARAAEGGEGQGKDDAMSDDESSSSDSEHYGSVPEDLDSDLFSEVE
Described as above.

These are yes or no findings as the source states them, for the method shown. Binding seen in cells or lysates may run through a third protein. Some results given as binding are weak or reduced against the parent protein; the word gives no strength. Tags and fused reporters may be left off the sequences shown.

B1: Dbp7-GFP (enzyme, UniProt P36120 1-742)
chain: MSDEDSMLLNFTTNEDTAGSSYKQAAKVTGGRWKDRRRMKMKLEGKTVSRKRKANTTGDEGIIPGRGENSIKKLHKESSYSSEEQEKYKGRNAHNTQGRTLPADSQFVSSLFTSNREITTAVNTNIHDENVAINPSNAPLKGDQFASLGVSSLLVSHLEQKMRIKKPTSIQKQAIPQIIGNAGKNDFFIHAQTGSGKTLSYLLPIISTILNMDTHVDRTSGAFALVIAPTRELASQIYHVCSTLVSCCHYLVPCLLIGGERKKSEKARLRKGCNFIIGTPGRVLDHLQNTKVIKEQLSQSLRYIVLDEGDKLMELGFDETISEIIKIVHDIPINSEKFPKLPHKLVHMLCSATLTDGVNRLRNVALKDYKLISNGTKKDSDIVTVAPDQLLQRITIVPPKLRLVTLAATLNNITKDFIASGQQSKTLRTIVFVSCSDSVEFHYDAFSGSDGHHKNLTGDSVRLLTKGNTMFPCFSDSRDPDVVIYKLHGSLSQQMRTSTLQHFARDNEATKGKHLIMFCTDVASRGLDLPHVGSVIELDPPFAVEDHLHRVGRTARAGEKGESLLFLLPGEEEKYMDYIQPYHPMGWELLKFDKEILMPAFKDVNVNRNDKFIRKDEKSSKNKDVGDKEYEWDTNATTWHLNIERRVVGDSAFKNLAVKGFISHVRAYATHISQEKKFFNVKFLHLGHLAKSFGLRERPKAMGLQSSKDGNSEKKPTKENSKNKMFRMARMAEKQIASEFNY
As for B1, the binding result in test [1] and in test [2] was “binds” throughout.

Values taken from publication PMC8536713.
